Variants at the floor of the assay are shown more often than the library holds them.
B1: TPR 5TU (parent)
chain: GGAUCUUCUCGAUCUAACAAAAAAGACAAAUCUGCCACAAAGCUUGAGAGCAUCUUCGGAUGCAGAGGCGGCAGCCUUCGGUGGCGCGAUAGCGCCAACGUUCUCAACUAUGACACGCAAAACGCGUGCUCCGUUGAAUGGAGUUUAUCAUG

Variants of: B1
Assay: polymerase ribozyme fitness, log enrichment relative to wild type (log ratio); higher = more active; in vitro selection for triplet polymerase activity
How it was run: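 PCR was used to build mutant libraries for each subunit of a heterodimeric triplet polymerase ribozyme, which were then transcribed. A single in vitro selection round, in triplicate, used a frozen incubation at −7 °C and recovered extended constructs by gel excision, streptavidin beads and RT-PCR. Fitness is the logarithm of genotype enrichment relative to wild-type enrichment, averaged over replicates with inverse-variance weights. The logarithm is base 2, and after Illumina sequencing only genotypes with ≥10 input reads and ≥1 read per output were kept.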

Point of comparison: U45A G92A U127C G128A U130G, “polymerase ribozyme fitness (log ratio)” value -4.06. Against it:
- G42C C43U — lower, ≤ -4.2
- C43A C85G A89G A98U G133A — lower, ≤ -4.2
- G42U G84U U134C U139G — lower, ≤ -4.2
- U45A A49U U61A G86C — lower, ≤ -4.2
- G42C C76G — lower, ≤ -4.2
- G42U C116G C125A — lower, ≤ -4.2
- U44G C54A C85A G124A U139A G143U — lower, ≤ -4.2
- G42U G59U G84A C85U C103G A119G — lower, ≤ -4.2
- G42U C63A C69U C85G A98C A107U — lower, ≤ -4.2
- G42C G58C A60C U61A A120U — lower, ≤ -4.2
- U45A G117U — higher, -3.08
- C43U U55A G112U U146A — lower, ≤ -4.2
- U44G C54U A91C — lower, ≤ -4.2
- G42C C76U C99G A122G G141C — lower, ≤ -4.2
- C43A G50A C85G — lower, ≤ -4.2
- G42A G88A C93G U145G C149A — lower, ≤ -4.2
- G42A U77A G83U A122C — lower, ≤ -4.2
- C43U A47G C96U C116U — lower, ≤ -4.2
- G42C U56A G141C — lower, ≤ -4.2
- G42A A49G C93A C95U C108G U146G — lower, ≤ -4.2
- U44A G80C — lower, ≤ -4.2
- C43U C85A C87U G94C — lower, ≤ -4.2
- G42A A110U C149U — lower, ≤ -4.2
- U45A G81A U82G U151A — lower, ≤ -4.2
- U44G A60C G65U G67U G80U — lower, ≤ -4.2
- G42A C76A G94C C99U U127A U148A — lower, ≤ -4.2
- C43G G59C A60G G74U U148C — lower, ≤ -4.2
- U44A U45A C51U C95A C103G — lower, ≤ -4.2
- G42A A52G U61G G86A C114A — within 0.2 log units, -3.88
- C43U A115G — lower, ≤ -4.2
- G42U A64C G88U G128A — lower, ≤ -4.2
- U44A G83U C105G — lower, ≤ -4.2
- U44G C57G A66G G83C C85U A138C U151G — lower, ≤ -4.2
- U44G U53A A113C A121G A150U — lower, ≤ -4.2
- G42U U44A C54A G88U — lower, ≤ -4.2
- G42U U55G G71A C96G U144G — lower, ≤ -4.2
- C43U A52U C85G G133U — lower, ≤ -4.2
- G42A U53A — lower, ≤ -4.2
- G42C G48A C75G C96U U104A — lower, ≤ -4.2
- C43G G83U G88U G133A — lower, ≤ -4.2
- G42C G62A — lower, ≤ -4.2
- U44A U55G G58U — lower, ≤ -4.2
- U44A U90C C96U U109A G126C G141U — lower, ≤ -4.2
- U44C G50A G88C A106U G117U G143U — lower, ≤ -4.2
- U44A G83C C85G U146C — lower, ≤ -4.2
- C43G G86U U139C — within 0.2 log units, -4.11
- U44A C85A — lower, ≤ -4.2
- U44G G62A — lower, ≤ -4.2
- G42A A73G C87U — lower, ≤ -4.2
- U45A G46C C116U G133A — lower, ≤ -4.2
- U44A G50A C95U — lower, ≤ -4.2
- U44G G58A U61A C87G A113G — lower, ≤ -4.2
- G42A U45C A60C C116U — lower, ≤ -4.2
- G42A C87G — lower, ≤ -4.2
- U45A A64U A97G — lower, ≤ -4.2
- U44G C54G C76G C85A — lower, ≤ -4.2
- G42C G84U A138G U146G — lower, ≤ -4.2
- G42A U148C — lower, ≤ -4.2
- G42U A121G — lower, ≤ -4.2
- U44A C57U C69A G94A A115U G117A G141A — lower, ≤ -4.2
- C43A G141C — lower, ≤ -4.2
- G42U A52C C69A U90A C93U — lower, ≤ -4.2
- U45A G65A G84U C95G G126U — lower, ≤ -4.2
- C43A A64U A91G U102C C114U C129U — lower, ≤ -4.2
- G42C A47C U53A U82C G84A A122G A138U G143C — lower, ≤ -4.2
- U45A A47C G86A A107G U127G G140U A150U G152U — lower, ≤ -4.2
- U45A G67C G84U C108U A120U — lower, ≤ -4.2
- U44A C57G C69G G80C U82A C108A U109G G141C — lower, ≤ -4.2
- U45A G58C — higher, -2.28
- C43U G59A C85A A107C G126C — lower, ≤ -4.2
- G42C C95A U135G — lower, ≤ -4.2
- U44A U56A C57G G59C A89G G140A — lower, ≤ -4.2
- G42C U56G C114U U127A A138C — lower, ≤ -4.2
- C43G G50C U82A C116A — lower, ≤ -4.2
- G42A G92U U104G C108A A115C — lower, ≤ -4.2
- U44G G133C A137G U146C — lower, ≤ -4.2
- U44G U61A G81C G88U C93G A110G — lower, ≤ -4.2
- C43G U55A G68C A91G C114U C129U G133U — lower, ≤ -4.2
- C43U G59C C99U G141U — lower, ≤ -4.2
- G42A G74C G83C A107U G112C — lower, ≤ -4.2
- U44A G50C G59A C85U C95U C116A C123G — lower, ≤ -4.2
- G42U G48C G92A A107U U135C U148C — lower, ≤ -4.2
- C43U C75G G84U — lower, ≤ -4.2
- U45A A52G G86A A89U A91C A142C C149G — lower, ≤ -4.2
- U45A G84A A115C — within 0.2 log units, -3.88
- U44A G50A C79A C99U U102G C108U — lower, ≤ -4.2
- G42A C75G C87A — lower, ≤ -4.2
- C43A C93U C103A C105A — lower, ≤ -4.2
- G42C G62C A73C G94U C118G A120U G133C — lower, ≤ -4.2
- C43U A49C C96A A107C A113U — lower, ≤ -4.2
- U44G C93G U102G — lower, ≤ -4.2
- C43G G92U U104G A119G — lower, ≤ -4.2
- U45A A52C — lower, ≤ -4.2
- C43U G62C U102A C105U U135C — lower, ≤ -4.2
- U45A C99A A106U A121U C149G G152A — within 0.2 log units, -4.01
- U44G U56A C57U C79G C105U — lower, ≤ -4.2
- C43U C103G — lower, ≤ -4.2
- U44G G46U C85A C93U A137G U139C U145A — lower, ≤ -4.2
- G42A A60C C76G C95U G133C — lower, ≤ -4.2
- C43U U139G G141U — lower, ≤ -4.2
- U44A U77G G84U C118U — lower, ≤ -4.2
- C43A C95G C118G U127G C132U — lower, ≤ -4.2
- C43A C57U C76G C85A G86A G140A — lower, ≤ -4.2
- G42C C43G U56A G59U C85U C125A U127C — lower, ≤ -4.2
- U44A A47U G50C C57G G65A C96U — lower, ≤ -4.2
- G42U U56A C93G G128U — lower, ≤ -4.2
- G42C C87U A147G — lower, ≤ -4.2
- C43U A49G C51G U55A A91G A113U A150C — lower, ≤ -4.2
- U45A G84A — higher, -3.44
- G42C U56G U144A — lower, ≤ -4.2
- U44G G48U A115G C131U — lower, ≤ -4.2
- C43A G83U A113C G143A — lower, ≤ -4.2
- U44A A47C — lower, ≤ -4.2
- U44A C85U A89G U104A A138G — lower, ≤ -4.2
- C43U A49C C54U C108G C118A — lower, ≤ -4.2
- C43U G48A C96U U111A — lower, ≤ -4.2
- C43U A73U G94A U104A U111G U139A — lower, ≤ -4.2
- G42A C54A G80A C95U C105A C114U A121C G133C — lower, ≤ -4.2
- G42C G58U C75A U77G C79G G94A C108U C118U U130G C131U — lower, ≤ -4.2
- C43U G48C U53G U55G U102A C118A A119C A150C G152C — lower, ≤ -4.2
- G42C U55A U82A A106U — lower, ≤ -4.2
- U45A G48C A60C C76G C79A G92A U127C — lower, ≤ -4.2
- G42C U82G U104A C116U A137G G152A — lower, ≤ -4.2
- U44A C116G U130C — lower, ≤ -4.2
- G42U U55G G59A G88U C96G A98G C118G — lower, ≤ -4.2
- U45A A91U G140A G141A — lower, ≤ -4.2
- G42U G88A C105G — lower, ≤ -4.2
- G42U G48U C54G C87U — lower, ≤ -4.2
- G42U A64C C79U G83A — lower, ≤ -4.2
- G42A G46C G84U C103A U104G C123G G128C G133C G143C — lower, ≤ -4.2
- G42U G48C G71U U78A C87U C96G A98G — lower, ≤ -4.2
- U44C G83C U148A — lower, ≤ -4.2
- C43A U44A C118U — within 0.2 log units, -4.17
- C43G A60C C131U A138G — lower, ≤ -4.2
- G42C A47C C93G G140C — lower, ≤ -4.2
- U44A C95U U101G A120C — lower, ≤ -4.2
- G42U U61A A64G C85U C87A A89U G133A U134G A150C — lower, ≤ -4.2
- U44G G58C U61G C63U G67C C69A U78C C95U C105G U146G — lower, ≤ -4.2
- C43U G74U C85G G136A G140C — lower, ≤ -4.2
- U44G C76G G92C A113G — lower, ≤ -4.2
- U44A U55A C57U G88A C99A A122U G128A — lower, ≤ -4.2
- G42U G62U A66C U144C — lower, ≤ -4.2
- C43U C54U G71C G126U — lower, ≤ -4.2
- G42U G70C G83C G141C — lower, ≤ -4.2
- U44G G50A U55A G65A G84U A97U U101C — lower, ≤ -4.2
- U44A A47U C69G G70A C72U C93U A106G — lower, ≤ -4.2
- G42A G68C G94U — lower, ≤ -4.2
- U44G G141C — lower, ≤ -4.2
- U44A G80A A138U A150G — lower, ≤ -4.2
- C43U G70A C87A C118G A138G G143C — lower, ≤ -4.2
- U45A C96U G100U U139G — lower, ≤ -4.2
- G42C U53A U55G U77C A91U U102G — lower, ≤ -4.2
- G42A U45A A73G C85U C114U — lower, ≤ -4.2
- U44A U55G G71U C72A A91U G117A U145C — lower, ≤ -4.2
- U45A C93G — lower, ≤ -4.2
- C43U G141C U144G — lower, ≤ -4.2
- U44A U82A G92A — lower, ≤ -4.2
- C43G A52C C85U C116U G152U — lower, ≤ -4.2
- G42A G59U C76U G88U C103G G152U — lower, ≤ -4.2
- U45A A91U C93A — lower, ≤ -4.2
- U45A C125A C149G — lower, ≤ -4.2
- U45A C95U G128A U146G U148A U151G — lower, ≤ -4.2
- U45A A73U G83A G128U U151A — lower, ≤ -4.2
- C43A C76A G83U A121G G133U — lower, ≤ -4.2
- C43G G46A G68A A107U G126A C129A C132U — lower, ≤ -4.2
- G42C A60G G70A A91U C123A U134C — lower, ≤ -4.2
